{"source": "PubChem BioAssay AID720708", "about": "(National Center for Advancing Translational Sciences (NCATS), 2013)", "note": "Out of some 360,000 compounds screened, about 660 (0.18%) were called active. Inconclusive means that the source gave no clear call. Such entries were picked first, then a sample of the others. The call rests on the fitted dose curve; in most records, active means well fitted inhibition curve with a large enough effect; inconclusive means small, poorly fitted or top-dose-only effect; inactive means no such curve, though single readings can be large or run the other way. No potency is given beside an inconclusive call; the fits are too rough. On the % scale 0 is the no-effect control and ±100 the full control effect; potency means the concentration at half of the fitted maximal effect; tags describe the fitted curve by direction and shape.", "data": [{"target": "Rap guanine nucleotide exchange factor 4 (Homo sapiens) (UniProt Q8WZA2)", "sequence (Q8WZA2 whole entry, looked up)": "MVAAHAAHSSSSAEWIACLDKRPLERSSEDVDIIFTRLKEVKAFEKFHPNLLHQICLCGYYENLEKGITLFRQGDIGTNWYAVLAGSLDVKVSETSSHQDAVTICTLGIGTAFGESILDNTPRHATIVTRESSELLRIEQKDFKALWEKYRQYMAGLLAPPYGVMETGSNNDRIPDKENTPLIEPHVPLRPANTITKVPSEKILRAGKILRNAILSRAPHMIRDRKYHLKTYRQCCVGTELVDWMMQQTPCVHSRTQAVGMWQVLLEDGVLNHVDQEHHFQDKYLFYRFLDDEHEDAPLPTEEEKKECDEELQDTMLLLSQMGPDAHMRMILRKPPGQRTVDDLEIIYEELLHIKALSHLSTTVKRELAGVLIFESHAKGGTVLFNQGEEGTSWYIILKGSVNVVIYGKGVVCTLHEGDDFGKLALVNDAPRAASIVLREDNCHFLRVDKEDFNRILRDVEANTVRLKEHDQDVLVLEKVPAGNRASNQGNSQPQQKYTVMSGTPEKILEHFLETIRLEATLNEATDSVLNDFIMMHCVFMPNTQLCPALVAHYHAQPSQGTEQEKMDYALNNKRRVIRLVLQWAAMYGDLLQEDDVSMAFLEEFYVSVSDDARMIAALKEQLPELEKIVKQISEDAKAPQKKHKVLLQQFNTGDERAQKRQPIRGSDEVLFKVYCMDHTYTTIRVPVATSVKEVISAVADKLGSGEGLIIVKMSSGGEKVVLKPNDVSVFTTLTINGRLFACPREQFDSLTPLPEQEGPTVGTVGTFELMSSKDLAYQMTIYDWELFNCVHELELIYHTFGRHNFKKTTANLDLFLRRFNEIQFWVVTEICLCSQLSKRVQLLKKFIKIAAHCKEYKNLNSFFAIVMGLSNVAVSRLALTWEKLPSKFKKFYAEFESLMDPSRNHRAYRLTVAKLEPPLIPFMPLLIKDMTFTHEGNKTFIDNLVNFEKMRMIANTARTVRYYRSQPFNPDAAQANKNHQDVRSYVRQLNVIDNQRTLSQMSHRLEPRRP", "assay": "qHTS for Antagonist of cAMP-regulated guanine nucleotide exchange factor 2 (EPAC2): primary screen; further: nearly all actives have a fitted effect of over 45% in size", "settings": "EPAC2 GEF exchange of Rap1B-BODIPY-GDP, fluorescence; activity, negative = inhibition: at 114 µM (top of the series) unless noted", "from_the_text": "In multi-cellular eukaryotic organisms, the effects of cAMP are transduced by two ubiquitously-expressed intracellular cAMP receptors, the classic protein kinase A/cAMP-dependent protein kinase (PKA/cAPK) and the more recently discovered exchange protein directly activated by cAMP/cAMP-regulated guanine nucleotide exchange factor (EPAC/cAMP-GEF). Both PKA and EPAC are ubiquitously expressed in all tissues, and an increase in intracellular cAMP levels will lead to the activation of both PKA and EPAC. Therefore, careful dissections of the individual role and relative contribution of EPAC and PKA within the overall cAMP signaling in various model systems are critical for further elucidating the mechanism of cAMP signaling. To date no EPAC-specific antagonists and agonist, as well as isoform-specific agonists have been reported, and developing EPAC-specific pharmacological probes to determine the physiological functions that EPAC play in the overall cAMP-mediated signaling remains a major challenge within the research field. Furthermore, identified regulators of EPAC may lead to new mechanism-based therapeutic strategies specifically targeting the EPAC / cAMP-signaling components as EPAC has been implicated to play important roles in major human pathological conditions such as diabetes, heart disease, and cancer.\nThis qHTS will be used to screen the Molecular Libraries Small Molecule Repository (MLSMR) as a concentration-titration series using the NCGC unique quantitative screening (qHTS) platform to find inhibitors for EPAC2. In addition, this assay will also be used as a counterscreen for the EPAC1 qHTS. This fluorescent based assay is developed and validated for EPAC2 that measures exchange using EPAC effector Rap1 complex with BODIPY-GDP, a GDP analog with a tethered fluorophores. Inhibitors are identified by monitoring the change in fluorescence signal as the exchanged free BODIPY-GDP has a reduced fluorescence compared to Rap1-bound BODIPY-GDP. Decrease in signal (inhibition) is the desired outcome for the EPAC2 antagonist while no activity in this assay is desired for the EPAC1 antagonist counterscreen.\nNIH Chemical Genomics Center [NCGC]\nNIH Molecular Libraries Probe Centers Network [MLPCN]\nAssay Submitter (PI): Xiaodong Cheng, The University of Texas, Medical Branch\nBriefly, three uL of reagents (100 nM EPAC2, 250 nM RAP1B-BODIPY-GDP, 50 uM GDP) were dispensed into a 1536-well Greiner black solid-bottom medium binding assay plate. Controls and test compounds (23 nL) were transferred to the plate via a Kalypsys pin tool equipped with a 1536-pin array. The plates were centrifuged at 1,000 rpm for 15 seconds followed by 5 minute incubation at room temperature. The assay plates were read at 5 minute intervals for 30 minutes in the ViewLux plate reader using 480nm excitation and 540nm emission filters. The results were normalized to the agonist positive control ATA and DMSO.", "values": [{"smiles": "O=S(=O)(c1cc(O)ccc1O)c1cccc2c(S(=O)(=O)c3cc(O)ccc3O)cccc12", "Potency": "inactive"}, {"smiles": "COc1ccc(C(=O)NCC(=O)N/N=C/c2cccc(OC(=O)c3ccco3)c2)cc1OC", "Potency": "inactive"}, {"smiles": "Cc1ccccc1S(=O)(=O)Oc1ccc2ccc(O)cc2c1", "Potency": "inconclusive [inhibitor, single point]"}, {"smiles": "Cc1nc2c3cc(F)ccc3n(Cc3ccccc3F)c2s1", "Potency": "inconclusive [inhibitor, partial curve]"}, {"smiles": "Cc1cc(C)cc(N(CC(=O)NC2CCCCC2)C(=O)CCCC(=O)Nc2ccccn2)c1", "Potency": "inconclusive [inhibitor, partial curve]"}, {"smiles": "Cc1ccc(/C=N/NC(=O)c2nnn(-c3nonc3N)c2-c2cccs2)cc1", "Potency": "inconclusive [inhibitor, full curve, poor fit]"}, {"smiles": "CC1(C)CC(=O)C=C(Nc2ccccc2C#N)C1", "Potency": "inconclusive [inhibitor, single point]"}, {"smiles": "O=C1C(NS(=O)(=O)c2cccs2)=C(N2CCN(c3ccccc3)CC2)C(=O)c2ccccc21", "Potency": "inactive"}, {"smiles": "COc1ccc(CCNC(=O)COc2ccc(S(=O)(=O)N3CCOCC3)cc2)cc1OC", "Potency": "inactive"}, {"smiles": "Cc1nc2c(C(=O)NCc3ccccc3)c[nH]n2c(=O)c1Cl", "Potency": "inconclusive [inhibitor, partial curve]"}, {"smiles": "CCC(=O)N(CCC1(c2ccccc2OC)CCOC(C(C)C)C1)Cc1ccco1", "note": "(configuration not stated)", "Potency": "inconclusive [inhibitor, partial curve]"}, {"smiles": "Cc1ncc(CO)c2c1OC(C)(C)OC2", "Potency": "inactive"}, {"smiles": "CCc1ccc(C2C3=C(CCCC3=O)OC3=C2C(=O)CCC3)cc1", "Potency": "inconclusive [inhibitor, partial curve]"}, {"smiles": "CCCC1=C(C(=O)OCC)C(c2ccco2)C(C#N)=C(N)O1", "note": "(configuration not stated)", "Potency": "inconclusive [inhibitor, partial curve, poor fit]"}, {"smiles": "COc1ccccc1C=C(C(=O)c1ccccc1)c1ccccc1", "Potency": "inconclusive [inhibitor, full curve]"}, {"smiles": "C#CCSc1nc(C)cc(C(=O)OCC)c1C#N", "Potency": "inconclusive [inhibitor, partial curve]"}, {"smiles": "CC(=O)C(Cc1ccccc1)NC(=O)COc1ccc2c(c1)OCO2", "note": "(configuration not stated)", "Potency": "inconclusive [inhibitor, partial curve]"}, {"smiles": "Cc1ccc(-c2nc3ccccc3nc2-c2ccccc2)cc1", "Potency": "inconclusive [inhibitor, full curve, poor fit]"}, {"smiles": "Cc1ccc(Cl)cc1NC(=O)CSC(N)=O", "Potency": "inactive"}, {"smiles": "O=S1(=O)C[C@H](N2CCC[C@@H]2CO)[C@@H](COCc2ccccc2)N1", "Potency": "inactive"}, {"smiles": "Cc1cc(C)nc(NS(=O)(=O)c2ccc(NC(=O)Cc3ccccc3)cc2)n1", "Potency": "inconclusive [inhibitor, full curve, poor fit]"}, {"smiles": "Cc1cccc(NS(=O)(=O)c2ccc(C(=O)NCC(C)(C)N3CCOCC3)cc2)c1C", "Potency": "inactive"}, {"smiles": "CCOC(=O)c1c(-c2ccccc2)oc2ccc(O)cc12", "Potency": "inconclusive [inhibitor, partial curve]"}, {"smiles": "CC[C@@H](CC1CCCCC1)C(=O)N(Cc1ccccc1)c1ccccc1", "Potency": "inconclusive [inhibitor, partial curve]"}, {"smiles": "O=S(=O)(Nc1cccc2c1CCCC2)c1cccc(C(F)(F)F)c1", "Potency": "inconclusive [inhibitor, full curve]"}, {"smiles": "N#Cc1c2n(c(=S)n(-c3ccccc3[N+](=O)[O-])c1=O)CCCCC2", "Potency": "inconclusive [inhibitor, full curve, poor fit]"}, {"smiles": "C=CCOC(=O)C1=C(C)OC(N)=C(C#N)C1c1ccccc1F", "note": "(configuration not stated)", "Potency": "inconclusive [inhibitor, partial curve]"}, {"smiles": "COc1ccc(S(=O)(=O)Nc2cccc3ccc(O)cc23)cc1", "Potency": "inactive"}, {"smiles": "COc1cc(C)c(C(=O)Oc2cc(C)c(C(=O)O)c(O)c2)c(O)c1", "Potency": "inconclusive [inhibitor, partial curve]"}, {"smiles": "C[C@H](NC(N)=O)C(=O)N1CCN(S(=O)(=O)c2ccc3ccccc3c2)CC1", "Potency": "inactive"}, {"smiles": "O=C1OCCC1(c1ccccc1)c1ccccc1", "Potency": "inconclusive [inhibitor, partial curve]"}, {"smiles": "CCCC[C@@H]1C[C@H]1[C@@H](NC(=O)c1cccs1)c1ccc(Cl)cc1", "Potency": "inconclusive [inhibitor, full curve]"}, {"smiles": "COC(=O)C1=C(C)N(Cc2ccccc2)C(=NCc2cccc(C(F)(F)F)c2)N[C@H]1c1cccc(F)c1", "Potency": "inconclusive [inhibitor, single point]"}, {"smiles": "CCC(C(=O)OCC(=O)Nc1ccc(Cl)c(S(=O)(=O)N(C)C)c1)c1ccccc1", "note": "(configuration not stated)", "Potency": "inconclusive [inhibitor, partial curve]"}, {"smiles": "CCOc1ccc(C(=O)O[C@H]2[C@H](Cc3ccccc3)NS(=O)(=O)[C@H]3C[C@@H]4C=C[C@]23O4)cc1", "Potency": "inactive"}, {"smiles": "NC(N)=N/N=C/c1ccc(OCc2ccc(Cl)cc2Cl)cc1", "Potency": "inconclusive [inhibitor, partial curve]"}, {"smiles": "COc1ccc(C2=CC(=O)CC(c3ccc(OC)cc3)C2)cc1", "note": "(configuration not stated)", "Potency": "inconclusive [inhibitor, full curve]"}, {"smiles": "Oc1ccc(C[C@H]2CNC(=S)N2CCc2cc(C(F)(F)F)cc(C(F)(F)F)c2)cc1", "Potency": "inconclusive [inhibitor, partial curve]"}, {"smiles": "Cc1ccc(S(=O)(=O)N2[C@@H](c3ccc(Br)cc3)C(C(=O)O)=CC[C@H]2c2cccc(Cl)c2)cc1", "Potency": "inconclusive [inhibitor, partial curve]"}, {"smiles": "C#CCOc1ccc(/C=C2/C(=O)ON=C2C)cc1Cl", "Potency": "inconclusive [inhibitor, partial curve]"}, {"smiles": "COc1cc2c(cc1OC)C(c1ccccc1)N(C(=O)c1ccccc1)CC2", "note": "(configuration not stated)", "Potency": "inconclusive [inhibitor, partial curve]"}, {"smiles": "CC1CN(C(=O)CCC(=O)NCc2ccc(Cl)cc2)c2ccccc2S1", "note": "(configuration not stated)", "Potency": "inconclusive [inhibitor, partial curve]"}, {"smiles": "CN(C)N=Nc1ccc(S(N)(=O)=O)cc1", "Potency": "inactive"}, {"smiles": "COc1cc(/C=C2/SC(=S)N(C)C2=O)ccc1OC(=O)c1ccco1", "Potency": "inactive"}, {"smiles": "C=CCNC(=S)N/N=C/c1ccc(C)cc1C", "Potency": "inactive"}, {"smiles": "Cc1cccc(N(Cc2ccccc2)C(=O)c2ccccc2F)c1", "Potency": "inconclusive [inhibitor, partial curve]"}, {"smiles": "CCN(c1ccccc1)c1cc2ccccc2c(=O)[nH]1", "Potency": "inactive"}, {"smiles": "Cc1cc(Nc2ncc(Cl)cc2Cl)n(-c2ccccc2C)n1", "Potency": "inconclusive [inhibitor, partial curve]"}, {"smiles": "COc1cc(/C=C(\\C#N)C(=O)Nc2cccc(C(=O)O)c2)ccc1OCc1ccc(Cl)cc1", "Potency": "inactive"}, {"smiles": "N#CCCN(CCC#N)S(=O)(=O)c1ccc(C(=O)Nc2nnc(C3=COCCO3)o2)cc1", "Potency": "inconclusive [inhibitor, partial curve]"}, {"smiles": "O=S(=O)(Nc1ccccc1N1CCCCC1)c1ccc(F)cc1", "Potency": "inconclusive [inhibitor, full curve]"}, {"smiles": "CCCCc1ccc(NC(=S)N2CCCC(C)C2)cc1", "note": "(configuration not stated)", "Potency": "inconclusive [inhibitor, partial curve]"}, {"smiles": "C=CCn1c(Cc2ccccc2)nc2c(cnn2-c2ccccc2)c1=O", "Potency": "inconclusive [inhibitor, partial curve]"}, {"smiles": "Cc1cc(-c2ccc(C)c(S(=O)(=O)NCc3ccc(OC(C)C)cc3)c2)on1", "Potency": "inconclusive [inhibitor, partial curve]"}, {"smiles": "COc1ccc(S(=O)(=O)N2CCC[C@H]2C(=O)N2CCC[C@H]2C(=O)NCc2ccc(F)cc2F)cc1C", "Potency": "inconclusive [inhibitor, partial curve]"}, {"smiles": "CCSC1=N/C(=C/c2ccsc2)C(=O)N1c1ccccc1", "Potency": "inconclusive [inhibitor, full curve, poor fit]"}, {"smiles": "Cc1ccc(CSc2nnc(-c3ccccn3)n2C)cc1", "Potency": "inactive"}, {"smiles": "Cc1ccc(S(=O)(=O)Nc2ccccc2N2CCCCC2)cc1", "Potency": "inconclusive [inhibitor, full curve]"}, {"smiles": "OC(c1ccc(Cl)c(Cl)c1)c1ncc(-c2ccc(Cl)cc2)[nH]1", "note": "(configuration not stated)", "Potency": "inconclusive [inhibitor, full curve, poor fit]"}, {"smiles": "COc1ccc2nc(Nc3ccccc3OC)sc2c1", "Potency": "inconclusive [inhibitor, partial curve, poor fit]"}, {"smiles": "C[C@@H]1CC=C[C@H]2[C@H]1C(=O)N(Cc1ccccc1)[C@H]2c1ccc(Br)cc1F", "Potency": "inconclusive [inhibitor, full curve, poor fit]"}, {"smiles": "CC1CCCCC1NC(=O)CN1CCC(NC(=O)c2ccc([N+](=O)[O-])cc2)CC1", "note": "(configuration not stated)", "Potency": "inconclusive [inhibitor, single point]"}, {"smiles": "CN(C)C(CNC(=O)c1cccc(S(=O)(=O)N2CCN(c3ccc(F)cc3)CC2)c1)c1ccccc1", "note": "(configuration not stated)", "Potency": "inconclusive [inhibitor, single point]"}, {"smiles": "COc1ccc(C)cc1N(C(=O)c1snc(C(N)=O)c1N)C(C(=O)NC1CCCCC1)c1ccc(C)o1", "note": "(configuration not stated)", "Potency": "inconclusive [inhibitor, partial curve]"}, {"smiles": "COc1cccc(CC2(CO)CCCN(Cc3cc(F)ccc3-n3cccn3)C2)c1", "note": "(configuration not stated)", "Potency": "inactive"}, {"smiles": "CCCC(=O)NC(c1ccc(OC)cc1)c1ccc2cccnc2c1O", "note": "(configuration not stated)", "Potency": "inconclusive [inhibitor, full curve, poor fit]"}, {"smiles": "CCN(CC)C(=O)[C@H]1CC(CC(=O)NC/C=C(\\C)CCC=C(C)C)C(=O)N2CCc3c([nH]c4ccc(OC)cc34)[C@]12C", "note": "(some centres not stated)", "activity, negative = inhibition": "inconclusive: -13.8% [inhibitor]"}]}]}
